Measurements taken from the supplement of paper PMC8728848.
Some of the results follow.

Key:
Experiment in all cases: glycan array binding signal (z-score within array); higher = stronger binding
Conditions in all cases: glycan notation: IUPAC condensed, linker removed
[1] = biological target: Gal(b1-3)[Neu5Ac(a2-6)]GlcNAc
Outline: (§1)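 Glycan array data came from 3228 arrays in the Consortium for Functional Glycomics database, and only arrays with an available protein sequence were kept. Glycan names were put into IUPAC-condensed notation, and columns mapping to the same glycan were averaged. The binding signal is a within-array Z-score, averaged across arrays of one protein sequence run at different concentrations or buffers and across linkers. A negative Z-score can be read as non-binding.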

[2] = biological target: Gal(b1-3)[Neu5Ac(a2-6)]GlcNAc(a1-4)Gal(b1-4)Glc
Outline: as §1

[3] = biological target: Gal(b1-3)[Neu5Ac(a2-6)]GlcNAc(b1-4)Gal(b1-4)Glc
Outline: as §1

[4] = biological target: Gal(b1-3)[Neu5Ac(b2-6)]GalNAc
Outline: as §1

[5] = biological target: Gal(b1-3)[Neu5Ac(b2-6)]GlcNAc
Outline: as §1

Gal(b1-4)Gal = biological target: Gal(b1-4)Gal
Outline: as §1

[6] = biological target: Gal(b1-4)GalNAc(a1-3)[Fuc(a1-2)]Gal(b1-4)GlcNAc
Outline: as §1

[7] = biological target: Gal(b1-4)GalNAc(b1-3)[Fuc(a1-2)]Gal(b1-4)GlcNAc
Outline: as §1

Gal(b1-4)Glc = biological target: Gal(b1-4)Glc
Outline: as §1

Gal(b1-4)Glc6S = biological target: Gal(b1-4)Glc6S
Outline: as §1

Gal(b1-4)GlcNAc = biological target: Gal(b1-4)GlcNAc
Outline: as §1

[8] = biological target: Gal(b1-4)GlcNAc(a1-6)Gal(b1-4)GlcNAc
Outline: as §1

Gal(b1-4)GlcNAc(b1-2)Man = biological target: Gal(b1-4)GlcNAc(b1-2)Man
Outline: as §1

[9] = biological target: Gal(b1-4)GlcNAc(b1-2)Man(a1-3)Man(b1-4)GlcNAc(b1-4)GlcNAc
Outline: as §1

[10] = biological target: Gal(b1-4)GlcNAc(b1-2)Man(a1-3)[Gal(b1-4)GlcNAc(b1-2)Man(a1-6)]Man(b1-4)GlcNAc(b1-4)GlcNAc
Outline: as §1

[11] = biological target: Gal(b1-4)GlcNAc(b1-2)Man(a1-3)[Gal(b1-4)GlcNAc(b1-2)Man(a1-6)]Man(b1-4)GlcNAc(b1-4)[Fuc(a1-6)]GlcNAc
Outline: as §1

[12] = biological target: Gal(b1-4)GlcNAc(b1-2)Man(a1-3)[Gal(b1-4)GlcNAc(b1-2)Man(a1-6)][Gal(b1-4)GlcNAc(b1-4)]Man(b1-4)GlcNAc(b1-4)[Fuc(a1-6)]GlcNAc
Outline: as §1

[13] = biological target: Gal(b1-4)GlcNAc(b1-2)Man(a1-3)[Gal(b1-4)GlcNAc(b1-2)Man(a1-6)][GlcNAc(b1-4)]Man(b1-4)GlcNAc(b1-4)[Fuc(a1-6)]GlcNAc
Outline: as §1

[14] = biological target: Gal(b1-4)GlcNAc(b1-2)Man(a1-3)[GlcNAc(b1-2)Man(a1-6)]Man(b1-4)GlcNAc(b1-4)GlcNAc
Outline: as §1

[15] = biological target: Gal(b1-4)GlcNAc(b1-2)Man(a1-3)[GlcNAc(b1-4)][Gal(b1-4)GlcNAc(b1-2)Man(a1-6)]Man(b1-4)GlcNAc(b1-4)GlcNAc
Outline: as §1

[16] = biological target: Gal(b1-4)GlcNAc(b1-2)Man(a1-3)[Man(a1-6)]Man(b1-4)GlcNAc(b1-4)GlcNAc
Outline: as §1

[17] = biological target: Gal(b1-4)GlcNAc(b1-2)Man(a1-6)Man(b1-4)GlcNAc(b1-4)GlcNAc
Outline: as §1

[18] = biological target: Gal(b1-4)GlcNAc(b1-2)Man(a1-6)[GlcNAc(b1-2)Man(a1-3)]Man(b1-4)GlcNAc(b1-4)GlcNAc
Outline: as §1

[19] = biological target: Gal(b1-4)GlcNAc(b1-2)Man(a1-6)[Man(a1-3)]Man(b1-4)GlcNAc(b1-4)GlcNAc
Outline: as §1

[20] = biological target: Gal(b1-4)GlcNAc(b1-2)[Gal(b1-4)GlcNAc(b1-4)]Man(a1-3)[Gal(b1-4)GlcNAc(b1-2)Man(a1-6)]Man(b1-4)GlcNAc(b1-4)GlcNAc
Outline: as §1

[21] = biological target: Gal(b1-4)GlcNAc(b1-2)[Gal(b1-4)GlcNAc(b1-4)]Man(a1-3)[Gal(b1-4)GlcNAc(b1-2)[Gal(b1-4)GlcNAc(b1-6)]Man(a1-6)]Man(b1-4)GlcNAc(b1-4)GlcNAc
Outline: as §1

[22] = biological target: Gal(b1-4)GlcNAc(b1-2)[Gal(b1-4)GlcNAc(b1-4)]Man(a1-3)[GlcNAc(b1-4)][Gal(b1-4)GlcNAc(b1-2)Man(a1-6)]Man(b1-4)GlcNAc(b1-4)GlcNAc
Outline: as §1

[23] = biological target: Gal(b1-4)GlcNAc(b1-2)[Gal(b1-4)GlcNAc(b1-4)]Man(a1-3)[GlcNAc(b1-4)][Gal(b1-4)GlcNAc(b1-2)[Gal(b1-4)GlcNAc(b1-6)]Man(a1-6)]Man(b1-4)GlcNAc(b1-4)GlcNAc
Outline: as §1

[24] = biological target: Gal(b1-4)GlcNAc(b1-2)[Gal(b1-4)GlcNAc(b1-6)]Man(a1-6)[Gal(b1-4)GlcNAc(b1-2)Man(a1-3)]Man(b1-4)GlcNAc(b1-4)GlcNAc
Outline: as §1

[25] = biological target: Gal(b1-4)GlcNAc(b1-2)[Gal(b1-4)GlcNAc(b1-6)]Man(a1-6)[Gal(b1-4)GlcNAc(b1-2)Man(a1-3)]Man(b1-4)GlcNAc(b1-4)[Fuc(a1-6)]GlcNAc
Outline: as §1

[26] = biological target: Gal(b1-4)GlcNAc(b1-2)[Gal(b1-4)GlcNAc(b1-6)]Man(a1-6)[GlcNAc(b1-4)][Gal(b1-4)GlcNAc(b1-2)Man(a1-3)]Man(b1-4)GlcNAc(b1-4)GlcNAc
Outline: as §1

[27] = biological target: Gal(b1-4)GlcNAc(b1-2)[Gal(b1-4)GlcNAc(b1-6)]Man(a1-6)[GlcNAc(b1-4)][Gal(b1-4)GlcNAc(b1-2)[Gal(b1-4)GlcNAc(b1-4)]Man(a1-3)]Man(b1-4)GlcNAc(b1-4)[Fuc(a1-6)]GlcNAc
Outline: as §1

[28] = biological target: Gal(b1-4)GlcNAc(b1-3)Gal(b1-3)GalNAc
Outline: as §1

[29] = biological target: Gal(b1-4)GlcNAc(b1-3)Gal(b1-3)GlcNAc
Outline: as §1

[30] = biological target: Gal(b1-4)GlcNAc(b1-3)Gal(b1-4)Glc
Outline: as §1

[31] = biological target: Gal(b1-4)GlcNAc(b1-3)Gal(b1-4)GlcNAc
Outline: as §1

[32] = biological target: Gal(b1-4)GlcNAc(b1-3)Gal(b1-4)GlcNAc(b1-2)Man(a1-3)[Gal(b1-4)GlcNAc(b1-3)Gal(b1-4)GlcNAc(b1-2)Man(a1-6)]Man(b1-4)GlcNAc(b1-4)GlcNAc
Outline: as §1

B1: Epa15 (Candida glabrata) (protein)
chain: MGSSHHHHHHSSGLVPRGSHMASDPTTFPLGCSPEFTKTKKGLSMELYRYDYLPPGSYPCWDSAYLNPSYPRTGYKAKKLIATVDGVSGDINFKFNPKFGCKAIPDYLPSNFNYHEPITITNFTMILYGYFMPKTTAFHTFYVTADDLLFMNFGAGNAFDCCRREETADKFGNYAAYSVWGKKSLKNELTVYLHTGVYYPIRLFYNNRDYIAQLDIRFKTEHSNAIITNFTDYFYSVDDSSLGCPGLI
[1]
  glycan array binding signal (z-score): 2.5
[2]
  glycan array binding signal (z-score): -0.269
[3]
  glycan array binding signal (z-score): 0.174
[4]
  glycan array binding signal (z-score): 0.796
[5]
  glycan array binding signal (z-score): -0.19
Gal(b1-4)Gal
  glycan array binding signal (z-score): -0.308
[6]
  glycan array binding signal (z-score): -0.276
[7]
  glycan array binding signal (z-score): 0.387
Gal(b1-4)Glc
  glycan array binding signal (z-score): -0.25
Gal(b1-4)Glc6S
  glycan array binding signal (z-score): 0.486
Gal(b1-4)GlcNAc
  glycan array binding signal (z-score): -0.049
[8]
  glycan array binding signal (z-score): 0.324
Gal(b1-4)GlcNAc(b1-2)Man
  glycan array binding signal (z-score): -0.235
[9]
  glycan array binding signal (z-score): 0.064
[10]
  glycan array binding signal (z-score): 1.75
[11]
  glycan array binding signal (z-score): -0.257
[12]
  glycan array binding signal (z-score): 0.437
[13]
  glycan array binding signal (z-score): 0.366
[14]
  glycan array binding signal (z-score): -0.432
[15]
  glycan array binding signal (z-score): 0.065
[16]
  glycan array binding signal (z-score): -0.258
[17]
  glycan array binding signal (z-score): -0.03
[18]
  glycan array binding signal (z-score): 0.059
[19]
  glycan array binding signal (z-score): 0.707
[20]
  glycan array binding signal (z-score): 0.566
[21]
  glycan array binding signal (z-score): -0.038
[22]
  glycan array binding signal (z-score): 1.09
[23]
  glycan array binding signal (z-score): 0.66
[24]
  glycan array binding signal (z-score): 1.03
[25]
  glycan array binding signal (z-score): 0.393
[26]
  glycan array binding signal (z-score): -0.041
[27]
  glycan array binding signal (z-score): -0.311
[28]
  glycan array binding signal (z-score): 0.68
[29]
  glycan array binding signal (z-score): -0.222
[30]
  glycan array binding signal (z-score): -0.063
[31]
  glycan array binding signal (z-score): 0.46
[32]
  glycan array binding signal (z-score): 0.585
